Measured values reported in PubChem BioAssay AID504332 (National Center for Advancing Translational Sciences (NCATS), 2011).
Where “and” joins values, the source holds several entries; their conditions need not be identical. Equal entries are not always repeated. The whole screen tested about 350,000 compounds, of which about 31,000 (8.9%) were called active. The shares of active, inactive and inconclusive entries below differ from those in the screen. Calls come from the whole dose curve; as a rule, active = well fitted inhibition curve with a large enough effect; inconclusive = small, poorly fitted or top-dose-only effect; inactive = no such curve, though single readings can be large or run the other way. Where the call is inconclusive, the potency comes from a doubtful curve fit.

The compounds below were run against Histone-lysine N-methyltransferase EHMT2 (Homo sapiens) (UniProt Q96KQ7) (assay: qHTS Assay for Inhibitors of Histone Lysine Methyltransferase G9a). Settings: G9a H3K9 monomethylation, AlphaScreen, 2 h; activity, negative = inhibition: at 59 µM (top of the series) unless noted.
Chain of UniProt Q96KQ7 (Q96KQ7 whole entry, looked up): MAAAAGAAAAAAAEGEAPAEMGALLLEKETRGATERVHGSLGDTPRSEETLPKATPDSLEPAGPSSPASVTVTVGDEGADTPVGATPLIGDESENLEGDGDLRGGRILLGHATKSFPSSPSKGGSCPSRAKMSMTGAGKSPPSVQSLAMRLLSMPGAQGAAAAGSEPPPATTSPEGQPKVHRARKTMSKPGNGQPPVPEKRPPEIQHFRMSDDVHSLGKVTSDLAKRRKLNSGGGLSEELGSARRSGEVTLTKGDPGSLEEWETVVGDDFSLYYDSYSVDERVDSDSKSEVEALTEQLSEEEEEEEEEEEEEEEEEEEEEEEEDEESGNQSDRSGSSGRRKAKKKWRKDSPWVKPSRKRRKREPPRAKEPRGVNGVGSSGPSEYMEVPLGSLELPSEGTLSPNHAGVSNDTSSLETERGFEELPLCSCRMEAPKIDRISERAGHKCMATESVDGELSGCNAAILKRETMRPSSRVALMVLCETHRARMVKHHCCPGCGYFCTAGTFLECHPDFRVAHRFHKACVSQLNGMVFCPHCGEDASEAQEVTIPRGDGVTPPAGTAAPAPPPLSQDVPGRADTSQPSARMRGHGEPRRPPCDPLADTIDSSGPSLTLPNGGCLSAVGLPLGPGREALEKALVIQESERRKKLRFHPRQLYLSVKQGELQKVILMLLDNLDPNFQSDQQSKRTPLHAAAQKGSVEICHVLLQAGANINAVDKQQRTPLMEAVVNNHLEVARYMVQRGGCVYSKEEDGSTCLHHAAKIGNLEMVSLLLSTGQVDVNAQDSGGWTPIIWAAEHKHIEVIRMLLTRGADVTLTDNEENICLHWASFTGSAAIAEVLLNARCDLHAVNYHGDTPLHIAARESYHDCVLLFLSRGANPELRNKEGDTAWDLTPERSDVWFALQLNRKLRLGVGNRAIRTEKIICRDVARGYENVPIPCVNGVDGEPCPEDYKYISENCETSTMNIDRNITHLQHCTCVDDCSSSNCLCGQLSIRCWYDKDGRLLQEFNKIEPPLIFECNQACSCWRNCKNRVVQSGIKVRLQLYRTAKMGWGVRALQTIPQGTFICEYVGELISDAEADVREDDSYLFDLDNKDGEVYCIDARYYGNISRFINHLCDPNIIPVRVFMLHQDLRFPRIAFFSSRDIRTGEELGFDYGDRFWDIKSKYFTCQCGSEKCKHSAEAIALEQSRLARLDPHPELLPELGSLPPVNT
How it was run: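 Methyltransferase reactions run at room temperature for 2 h (20 nM enzyme, 500 nM biotin-H3K9 peptide, 20 uM SAM) after a 15 min compound preincubation; product detected by AlphaScreen beads and anti-H3K9me1 antibody.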
% is set by controls: 0 for no effect and ±100 for the full control effect; potency is the fitted concentration of half-maximal effect; tags give direction and shape of the fitted curve.
Note: nearly all actives have a fitted effect of over 75% in size.

| SMILES | Potency | activity, negative = inhibition |
| --- | --- | --- |
| O=C(/C=C\c1ccco1)c1ccc(NC(=O)c2ccco2)cc1 | active: 22.4 µM | – |
| OCC[C@H]1C[C@@H](O)[C@H](O)[C@]2(OCCCc3ccccc32)O1 | – | inactive: -3% [at 12.7 µM] |
| CN(C)c1ccc(CNC(=O)C2CCN(S(=O)(=O)c3ccc4c(c3)CCCC(=O)N4)CC2)cc1 | active: 44.7 µM | – |
| CC(=O)Nc1ccc(NC(=O)CSc2nnnn2C2CCCCC2)cc1 | – | inactive: -23.7% [at 102 µM] |
| CCOC(=O)/C(=C\c1cn(C)c2ccccc12)[N+](=O)[O-] | inconclusive: 28.2 µM [inhibitor, single point] | – |
| Cc1ccccc1SCC(=O)OCC(=O)Nc1ccc(N(C)C)cc1 | active: 12.6 µM | – |
| COc1ccccc1N1CCN(c2nc3ccccc3n3cnnc23)CC1 | – | inactive: -8.67% |
| CC(Oc1ccc(Cl)cc1)c1ccnn1S(C)(=O)=O (configuration not stated) | inconclusive: 22.4 µM [inhibitor, partial curve, poor fit] | – |
| Cc1c(NC(=O)C(C)N2C(=O)C3C4C=CC(C4)C3C2=O)c(=O)n(-c2ccccc2)n1C (configuration not stated) | inconclusive: 79.4 µM [inhibitor, partial curve, poor fit] | – |
| O=c1[nH]n2c(=O)c3c([nH]c2c1N=Nc1cccc(Cl)c1)CCC3 | inconclusive: 31.6 µM [inhibitor, single point] | – |
| O=C(O)/C(=C/c1c(C(=O)O)[nH]c2cc(Cl)cc(Cl)c12)c1ccccc1 | inconclusive: 89.1 µM [inhibitor, single point] and inconclusive: 26.7 µM [inhibitor, single point] | – |
| CC1(C)c2cc(O)ccc2OC1N1CCOCC1 (configuration not stated) | active: 8.91 µM | – |
| O=C(N/N=C/c1ccc[nH]1)c1ccc(COc2cccc3cccnc23)cc1 | inconclusive: 44.7 µM [inhibitor, partial curve, poor fit] | – |
| CC(C)c1ccccc1NCC(=O)N1CCN(Cc2ccccc2)CC1 | active: 50.1 µM | – |
| CCCNC(=O)OC[C@H]1O[C@H](CCO/N=C/c2ccc(C(=O)N3[C@H](c4ccc(C)cc4)[C@@H](C)CC[C@H]3C(=O)OC)cc2)C=C[C@@H]1Oc1ccc(OC)cc1 | active: 70.8 µM | – |
| CN(CC(=O)Nc1ccc(Cl)cc1)C(=O)Cc1c(F)cccc1Cl | inconclusive: 28.2 µM [inhibitor, partial curve, poor fit] | – |
| COCCn1c(-c2ccccc2)csc1=Nc1cccnc1 | active: 39.8 µM | – |
| CN1c2ccsc2C(O)=C(C(=O)Nc2ccccc2)S1(=O)=O | – | inactive: -6.88% [at 12.7 µM] |
| CN1/C(=C\C(=S)NC(=O)c2cccc(Br)c2)C(C)(C)c2ccccc21 | active: 14.1 µM | – |
| Cc1c(Cl)c(C(=O)NNC(=S)NCc2ccco2)nn1C | inconclusive: 22.4 µM [inhibitor, single point] | – |
| CCOc1ccc(NC(=O)CN(C)C(=O)CSCc2ccc(C)cc2)cc1OCC | inconclusive: 50.1 µM [inhibitor, partial curve, poor fit] | – |
| COCCCNCCCOc1ccc(C(C)(C)c2ccccc2)cc1 | active: 2.82 µM | – |
| O=C(NCCC1=CCCCC1)c1cc(-c2ccccn2)nc2ccccc12 | – | inactive: 0.97% [at 102 µM] |
| Cc1nc(-c2ccccc2O)n(-c2ccccc2)n1 | – | inactive: -2.04% [at 12.7 µM] |

| SMILES | Potency | activity, negative = inhibition |
| --- | --- | --- |
| CCOCCCNC(=O)c1ccccc1OC1CCN(S(C)(=O)=O)CC1 | inconclusive: 89.1 µM [inhibitor, single point] | – |
| COc1ccc2c(c1)c1ccc3c(c1n2C)C(=O)C=CC3=O | active: 1.78 µM | – |
| Cc1[nH]c2ccccc2c1C(=O)CN1CCSCC1 | inconclusive: 89.1 µM [inhibitor, partial curve, poor fit] | – |
| CN1CCN(C(=O)CCN2C(=O)/C(=C/c3cccc(Br)c3)SC2=S)CC1 | active: 25.1 µM | – |
| O=c1c(OC2OC(CO)C(O)C(O)C2O)c(-c2ccc(O)c(O)c2)oc2cc(O)cc(O)c12 (configuration not stated) | – | inactive: -6.1% [at 102 µM] |
| COc1ccc(CNc2ncccc2[N+](=O)[O-])cc1 | inconclusive: 39.8 µM [inhibitor, single point] | – |
| CC(=O)Nc1ccc(NC(=O)COC(=O)c2cc(S(=O)(=O)N(C)C)ccc2N2CCCC2)cc1 | inconclusive: 50.1 µM [inhibitor, partial curve] | – |
| COC(=O)Nc1ccc2c(c1)N(C(=O)CCN1CCN3CCCC3C1)c1ccccc1S2 (configuration not stated) | inconclusive: 28.2 µM [inhibitor, single point] | – |
| Cc1cccc(Cn2cc(/C=C/[N+](=O)[O-])c3ccccc32)c1 | – | inactive: -9.9% |
| O=C(c1ccc(NC(=S)NCc2ccco2)cc1)N1CCOCC1 | active: 44.7 µM | – |
| Cc1c(Cl)cccc1-c1ccc(CNCCCSc2nnnn2C)o1 | inconclusive: 10 µM [inhibitor, partial curve] | – |
| O=[N+]([O-])c1ccc(OCCOCCOc2ccc([N+](=O)[O-])cc2)cc1 | – | inactive: -8.24% |
| N#CC1=C(N)NC(SCc2ccc(Br)cc2)=C(C#N)C12CCCCC2 | inconclusive: 25.1 µM [inhibitor, single point] | – |
| O=C(c1ccc([N+](=O)[O-])cc1)N1CCN=C1SCc1ccccc1 | inconclusive: 50.1 µM [inhibitor, partial curve, poor fit] | – |
| CC(C)c1ccc(NC(=O)C2C3C=CC4(O3)C2C(=O)N(CCCN2CCOCC2)C4C(=O)NC2CCCCC2)cc1 (configuration not stated) | inconclusive: 89.1 µM [inhibitor, single point] | – |
| Nc1cc2c(cc1C(=O)c1ccccc1F)OCCO2 | inconclusive: 56.2 µM [inhibitor, single point] | – |
| Clc1cccc(Cc2nn[nH]n2)c1 | inconclusive: 11.2 µM [inhibitor, partial curve, poor fit] | – |
| CCN(CCNC(=O)Cn1c(=O)sc2ccccc21)c1ccccc1 | inconclusive: 6.31 µM [inhibitor, full curve, poor fit] | – |
| CC1(C)Cc2c(sc(NC(=O)C(=O)NCCCN3CCOCC3)c2C#N)CO1 | active: 22.4 µM | – |
| C=CCc1ccccc1OCCSc1nc(-c2cccs2)nc2cc(=O)[nH]n12 | – | inactive: 17.6% |
| CCOc1ccc(NC(=O)c2c(C)nn(-c3ccc(F)cc3)c2-n2cccc2)cc1 | inconclusive: 1.78 µM [inhibitor, partial curve, poor fit] | – |
| CSc1ccc(C(=O)C2CCCN(C(=O)Cc3nonc3C)C2)cc1 (configuration not stated) | – | inactive: -2.13% [at 102 µM] |
| CC(C(=O)N1CCOCC1)N1C(=O)c2cccc3cccc(c23)C1=O (configuration not stated) | inconclusive: 31.6 µM [inhibitor, partial curve] | – |
| CC(=O)N1CCCc2cc(S(=O)(=O)CCC(=O)N3CCN(c4cccc(C)c4)C(C)C3)ccc21 (configuration not stated) | active: 50.1 µM | – |

| SMILES | Potency | activity, negative = inhibition |
| --- | --- | --- |
| O=C(CCCN1C(=O)/C(=C/c2cccc(Br)c2)SC1=S)Nc1cccnc1 | inconclusive: 79.4 µM [inhibitor, single point] | – |
| O=C(Nc1cccnc1Cl)c1cc(-c2cccc(O)c2)on1 | inconclusive: 89.1 µM [inhibitor, single point] | – |
| O=C(NCc1ccccc1)C1CCN(c2nc(-c3ccccc3)nc3c2CCC3)CC1 | – | inactive: 24% [at 102 µM] |
| CC1(C)Cc2c(cnn2-c2ccc(F)cc2)C(NC(=O)CN2CCCCC2=O)C1 (configuration not stated) | active: 39.8 µM | – |
| Fc1ccc(CN2CCCCCCC2)cc1 | active: 10 µM | – |
| CCCn1c(=O)c(C(=O)NCc2ccccc2)c(O)c2ccccc21 | – | inactive: 58.6% |
| COc1ccccc1S(=O)(=O)Cc1ccc(C(=O)NCc2cccnc2)o1 | inconclusive: 89.1 µM [inhibitor, single point] | – |
| CNc1nc(Cl)nc(Nc2ccccc2)n1 | – | inactive: -38.9% [at 102 µM] |
| CCc1c(C)sc2c1CCN(Cc1ccccc1)C2c1ccccc1 (configuration not stated) | – | inactive: 4.89% [at 12.7 µM] |
| CC(/C=C/c1ccco1)=N\NC(=O)c1cccnc1 | active: 50.1 µM | – |
| O=C(Nc1ccc2c(c1)CCC2)c1ccc(F)cc1 | – | inactive: -6.22% [at 102 µM] |
| CCCn1c(N)c(C(=O)CN(C)CC(=O)Nc2c(Cl)cccc2Cl)c(=O)[nH]c1=O | inconclusive: 39.8 µM [inhibitor, single point] | – |
| CCOC(=O)c1sc2nc3c(SCCC#N)cc(C(=O)c4cc(F)ccc4O)cn3c(=O)c2c1C | inconclusive: 89.1 µM [inhibitor, single point] | – |
| Cc1cccc(NC(=O)c2ccc3nc(N4CCOCC4)sc3c2)c1C | inconclusive: 56.2 µM [inhibitor, partial curve, poor fit] | – |
| O=C(CCNS(=O)(=O)c1ccc(Br)cc1)NCc1ccc(Cl)cc1 | – | inactive: 3.56% |
| CC1CCN(CCOCCOc2ccc(Br)cc2Cl)CC1 | active: 8.91 µM | – |
| COc1ccccc1C(=O)Nc1ccc(C(=O)OCc2cc(=O)n3ccsc3n2)cc1 | – | inactive: -3.8% |
| COc1ccc(Nc2ccc([N+](=O)[O-])c3nonc23)c(OC)c1 | inconclusive: 14.1 µM [inhibitor, partial curve, poor fit] | – |
| O=C(O)c1ccc(NC(=O)c2ccccc2NC(=O)c2cccc(Br)c2)cc1 | inconclusive: 89.1 µM [inhibitor, single point] | – |
| COc1ccccc1CN1CCNC(=O)C1CC(=O)NCc1csc(C)n1 (configuration not stated) | inconclusive: 89.1 µM [inhibitor, partial curve, poor fit] | – |
| COc1ccc(CN(C(=O)Cc2c[nH]c3ccccc23)C(C(=O)NC2CCCCC2)c2ccc(C)o2)cc1 (configuration not stated) | inconclusive: 25.1 µM [inhibitor, partial curve, poor fit] | – |
| COn1cnnc1-c1ccccc1 | active: 12.6 µM | – |
| O=C(NCCN1CCN(c2ccccc2)CC1)c1cccc(Cl)c1 | inconclusive: 89.1 µM [inhibitor, single point] | – |
| O=C(CSc1n[nH]c(-c2ccccn2)n1)Nc1cccc(Cl)c1 | inconclusive: 100 µM [inhibitor, partial curve, poor fit] | – |
